Key:
[1] = biological target: T1, scFv-scFv-Fc (Fc2) with PTCWT CH3 domain sequence, of the Fab-Fc × scFv-scFv-Fc hetero-bispecific antibody (Homo sapiens (Human), UniProt P0DOX5 partial chain = IgG part); experiment: non-reducing SDS-PAGE, Fab-Fc × scFv-scFv-Fc hetero-bispecific antibody
T1 construct: also called double scFv-Fc Fc2, PTCWT

[2] = biological target: T2, Fc2 of PTCWT (wild-type IgG1 Fc chain) (Homo sapiens (Human), UniProt P0DOX5 partial chain = IgG part); experiment: SE-HPLC of Protein A-purified co-expression
T2 construct: Fc chain only (hinge-CH2-CH3); also called Fc chain of Fc2 of PTCWT; Fc2 of PTC031

[3] = biological target: T2, Fc2 of PTCWT (wild-type IgG1 Fc chain); experiment: CE-SDS of Protein A-purified co-expression
[4] = biological target: T3, IL-2v-Fc (Fc2) with PTCWT CH3 domain sequence, of the Fab-Fc × cytokine-Fc hetero-bispecific antibody (Homo sapiens (Human), UniProt P0DOX5 partial chain = IgG part); experiment: non-reducing SDS-PAGE, Fab-Fc × cytokine-Fc hetero-bispecific antibody
T3 construct: also called cytokine-Fc Fc2, PTCWT

[5] = biological target: the molecule itself; experiment: non-reducing SDS-PAGE (FIG. 4), PTC088, PTC089 and PTC090 co-expressions
[6] = biological target: T4, scFv-scFv-Fc (Fc2) with PTC074 CH3 domain sequence, of the Fab-Fc × scFv-scFv-Fc hetero-bispecific antibody (Homo sapiens (Human), UniProt P0DOX5 partial chain = IgG part); experiment: non-reducing SDS-PAGE, Fab-Fc × scFv-scFv-Fc hetero-bispecific antibody
T4 construct: also called double scFv-Fc Fc2, PTC074

[7] = biological target: T5, scFv-scFv-Fc (Fc2) with PTC019 CH3 domain sequence, of the Fab-Fc × scFv-scFv-Fc hetero-bispecific antibody (Homo sapiens (Human), UniProt P0DOX5 partial chain = IgG part); experiment: as above
T5 construct: also called double scFv-Fc Fc2, PTC019

[8] = biological target: T6, Fc2 of PTC111 (IgG1 Fc chain with L351F, T366S, L368A, Y407V) (Homo sapiens (Human), UniProt P0DOX5 partial chain = IgG part); experiment: SE-HPLC of Protein A-purified co-expression
T6 construct: Fc chain only; also called Fc2 of PTC113; Fc2 of PTC115

[9] = biological target: T7, Fc2 of PTC019 (IgG1 Fc chain with T366S, L368A, Y407V) (Homo sapiens (Human), UniProt P0DOX5 partial chain = IgG part); experiment: SE-HPLC of Protein A-purified co-expression
T7 construct: Fc chain only; also called Fc2 of PTC032; Fc2 of PTC033

[10] = biological target: T6, Fc2 of PTC111 (IgG1 Fc chain with …); experiment: CE-SDS of Protein A-purified co-expression
[11] = biological target: T7, Fc2 of PTC019 (IgG1 Fc chain with …); experiment: CE-SDS of Protein A-purified co-expression
[12] = biological target: T8, IL-2v-Fc (Fc2) with PTC111 CH3 domain sequence, of the Fab-Fc × cytokine-Fc hetero-bispecific antibody (Homo sapiens (Human), UniProt P0DOX5 partial chain = IgG part); experiment: non-reducing SDS-PAGE, Fab-Fc × cytokine-Fc hetero-bispecific antibody
T8 construct: also called cytokine-Fc Fc2, PTC111

[13] = biological target: T9, IL-2v-Fc (Fc2) with PTC019 CH3 domain sequence, of the Fab-Fc × cytokine-Fc hetero-bispecific antibody (Homo sapiens (Human), UniProt P0DOX5 partial chain = IgG part); experiment: as above
T9 construct: also called cytokine-Fc Fc2, PTC019

[14] = biological target: T10, IL-2v-Fc (Fc2) with PTC074 CH3 domain sequence, of the Fab-Fc × cytokine-Fc hetero-bispecific antibody (Homo sapiens (Human), UniProt P0DOX5 partial chain = IgG part); experiment: as above
T10 construct: also called cytokine-Fc Fc2, PTC074

B1: Fc1 of PTCWT (avelumab heavy chain with wild-type IgG1 CH3, plus avelumab light chain) (other)
heavy: EVQLLESGGGLVQPGGSLRLSCAASGFTFSSYIMMWVRQAPGKGLEWVSSIYPSGGITFYADTVKGRFTISRDNSKNTLYLQMNSLRAEDTAVYYCARIKLGTVTTVDYWGQGTLVTVSS[not shown - human IgG1 constant region]
light: QSALTQPASVSGSPGQSITISCTGTSSDVGGYNYVSWYQQHPGKAPKLMIYDVSNRPSGVSNRFSGSKSGNTASLTISGLQAEDEADYYCSSYTSSSTRVFGTGTKVTVLGQPKANPTVTLFPPSSEELQANKATLVCLISDFYPGAVTVAWKADGSPVKAGVETTKPSKQSNNKYAASSYLSLTPEQWKSHRSYSCQVTHEGSTVEKTVAPTECS
notes: Half antibody: one heavy and one light chain; also called PTCWT Fc1; negative control group Fc1
Fc1-2 hetero-dimer (%) [1]: 42% | Fc1-2 hetero-dimer (%) [2]: 42.2% | Fc1-2 hetero-dimer (%) [3]: 40.1% | Fc1-2 hetero-dimer (%) [4]: 40.6%

B2: Fc1 of PTC088 (avelumab heavy chain with L351G, T366S, L368A, Y407V, plus avelumab light chain) (other)
heavy: EVQLLESGGGLVQPGGSLRLSCAASGFTFSSYIMMWVRQAPGKGLEWVSSIYPSGGITFYADTVKGRFTISRDNSKNTLYLQMNSLRAEDTAVYYCARIKLGTVTTVDYWGQGTLVTVSSASTKGPSVFPLAPSSKSTSGGTAALGCLVKDYFPEPVTVSWNSGALTSGVHTFPAVLQSSGLYSLSSVVTVPSSSLGTQTYICNVNHKPSNTKVDKKV[not shown - human IgG1 Fc with L351G T366S L368A Y407V (EU numbers)]
light: QSALTQPASVSGSPGQSITISCTGTSSDVGGYNYVSWYQQHPGKAPKLMIYDVSNRPSGVSNRFSGSKSGNTASLTISGLQAEDEADYYCSSYTSSSTRVFGTGTKVTVLGQPKANPTVTLFPPSSEELQANKATLVCLISDFYPGAVTVAWKADGSPVKAGVETTKPSKQSNNKYAASSYLSLTPEQWKSHRSYSCQVTHEGSTVEKTVAPTECS
notes: Half antibody; Substitutions in EU numbering; also called Fc1 of PTC089; Fc1 of PTC090
binding result [5]: no binding

B3: Fc1 of PTC019 (avelumab heavy chain with T366W in CH3, plus avelumab light chain) (other)
heavy: EVQLLESGGGLVQPGGSLRLSCAASGFTFSSYIMMWVRQAPGKGLEWVSSIYPSGGITFYADTVKGRFTISRDNSKNTLYLQMNSLRAEDTAVYYCARIKLGTVTTVDYWGQGTLVTVSS[not shown - human IgG1 constant region with changes]
light: QSALTQPASVSGSPGQSITISCTGTSSDVGGYNYVSWYQQHPGKAPKLMIYDVSNRPSGVSNRFSGSKSGNTASLTISGLQAEDEADYYCSSYTSSSTRVFGTGTKVTVLGQPKANPTVTLFPPSSEELQANKATLVCLISDFYPGAVTVAWKADGSPVKAGVETTKPSKQSNNKYAASSYLSLTPEQWKSHRSYSCQVTHEGSTVEKTVAPTECS
notes: Half antibody: one heavy and one light chain; also called Fc1 of PTC074; Fc1 of PTC091
Fc1-2 hetero-dimer (%) [6]: 70.2% | Fc1-2 hetero-dimer (%) [7]: 57.6% | Fc1-2 hetero-dimer (%) [8]: 91.6% | Fc1-2 hetero-dimer (%) [9]: 58.2% | Fc1-2 hetero-dimer (%) [10]: 84.8% | Fc1-2 hetero-dimer (%) [11]: 60.1% | Fc1-2 hetero-dimer (%) [12]: 89.9% | Fc1-2 hetero-dimer (%) [13]: 68.8% | Fc1-2 hetero-dimer (%) [14]: 90.4%

— patent US20230212320A1 (MUSTBIO, published 2023)
